This passage reports Kd results from patent US20200002403A1 (published 2020).

The term Kd denotes the free concentration of one partner at which half of the binding sites on the other are occupied at equilibrium, for simple one-to-one binding.

What all share (test): SPR (BIAcore)
Background: SPR reads the build-up and loss of mass on a sensor chip optically.

Assay [1] has as its target ELSS1 VNAR hit (unnamed, row 8).
Assay [2] deals with ELSS1 VNAR hit (unnamed, row 11).
For assay [3], the target named is ELSS1 VNAR hit (unnamed, row 9).
Chain of ELSS1 VNAR hit (unnamed, row 9) (Q15109 23-344): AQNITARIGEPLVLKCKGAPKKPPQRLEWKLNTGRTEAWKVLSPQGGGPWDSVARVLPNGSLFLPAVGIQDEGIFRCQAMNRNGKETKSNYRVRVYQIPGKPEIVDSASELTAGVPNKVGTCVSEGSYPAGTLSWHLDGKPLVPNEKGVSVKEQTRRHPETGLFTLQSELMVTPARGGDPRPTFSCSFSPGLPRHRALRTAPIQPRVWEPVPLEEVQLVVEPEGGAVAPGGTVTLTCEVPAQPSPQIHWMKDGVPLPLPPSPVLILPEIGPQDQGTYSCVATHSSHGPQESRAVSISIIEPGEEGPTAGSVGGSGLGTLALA
Assay [4] addresses ELSS1 VNAR hit (unnamed, row 7).
For assay [5], the target named is ELSS1 VNAR hit (unnamed, row 10).
Chain of ELSS1 VNAR hit (unnamed, row 10) (Q15109 23-344): as above
For assay [6], the target named is ELSS1 VNAR hit (unnamed, row 1).
Chain of ELSS1 VNAR hit (unnamed, row 1) (Q9NR61 27-524): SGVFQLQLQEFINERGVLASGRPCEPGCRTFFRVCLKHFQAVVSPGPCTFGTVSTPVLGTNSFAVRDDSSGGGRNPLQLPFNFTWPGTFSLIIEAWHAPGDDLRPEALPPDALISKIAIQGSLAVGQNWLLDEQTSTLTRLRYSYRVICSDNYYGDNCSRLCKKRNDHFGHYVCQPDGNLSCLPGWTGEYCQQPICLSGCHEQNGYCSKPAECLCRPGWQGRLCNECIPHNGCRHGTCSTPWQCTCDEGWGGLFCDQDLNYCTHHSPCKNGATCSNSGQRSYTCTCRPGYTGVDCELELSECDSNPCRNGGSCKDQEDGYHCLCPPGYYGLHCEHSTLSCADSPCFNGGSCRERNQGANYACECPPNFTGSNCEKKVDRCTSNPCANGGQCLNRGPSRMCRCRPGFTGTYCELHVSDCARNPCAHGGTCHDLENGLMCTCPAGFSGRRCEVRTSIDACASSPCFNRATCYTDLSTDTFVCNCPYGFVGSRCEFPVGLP
Assay [7] has as its target ELSS1 VNAR hit (unnamed, row 2).
Assay [8] has as its target ELSS1 VNAR hit (unnamed, row 4).
For assay [9], the target named is ELSS1 VNAR hit (unnamed, row 3).
Chain of ELSS1 VNAR hit (unnamed, row 3) (Q9NR61 27-524): as above

Chain of ELSS1 VNAR hit (unnamed, row 2) (Q9NR61 27-524): as above
Chain of ELSS1 VNAR hit (unnamed, row 4) (Q9NR61 27-524): as above
Chain of ELSS1 VNAR hit (unnamed, row 7) (Q15109 23-344): as the sequence (Q15109 23-344) above
Chain of ELSS1 VNAR hit (unnamed, row 8) (Q15109 23-344): as above
Chain of ELSS1 VNAR hit (unnamed, row 11) (Q15109 23-344): as above

B1: hRAGE (receptor)
chain: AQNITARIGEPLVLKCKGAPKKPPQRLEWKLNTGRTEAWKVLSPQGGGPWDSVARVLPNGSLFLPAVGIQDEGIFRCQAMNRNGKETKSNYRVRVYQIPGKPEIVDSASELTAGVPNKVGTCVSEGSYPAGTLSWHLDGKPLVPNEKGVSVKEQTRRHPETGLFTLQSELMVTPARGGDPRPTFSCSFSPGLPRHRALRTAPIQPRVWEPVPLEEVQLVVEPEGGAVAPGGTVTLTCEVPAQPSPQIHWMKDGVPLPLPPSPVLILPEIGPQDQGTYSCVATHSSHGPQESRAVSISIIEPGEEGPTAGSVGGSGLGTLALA
Take B1: the Kd was 75.3 nM in assay [1]; 57.2 nM in assay [2]; 10.9 nM in assay [3]; 14.3 nM in assay [4]; 73.3 nM in assay [5].

B2: hDLL4 (ligand)
chain: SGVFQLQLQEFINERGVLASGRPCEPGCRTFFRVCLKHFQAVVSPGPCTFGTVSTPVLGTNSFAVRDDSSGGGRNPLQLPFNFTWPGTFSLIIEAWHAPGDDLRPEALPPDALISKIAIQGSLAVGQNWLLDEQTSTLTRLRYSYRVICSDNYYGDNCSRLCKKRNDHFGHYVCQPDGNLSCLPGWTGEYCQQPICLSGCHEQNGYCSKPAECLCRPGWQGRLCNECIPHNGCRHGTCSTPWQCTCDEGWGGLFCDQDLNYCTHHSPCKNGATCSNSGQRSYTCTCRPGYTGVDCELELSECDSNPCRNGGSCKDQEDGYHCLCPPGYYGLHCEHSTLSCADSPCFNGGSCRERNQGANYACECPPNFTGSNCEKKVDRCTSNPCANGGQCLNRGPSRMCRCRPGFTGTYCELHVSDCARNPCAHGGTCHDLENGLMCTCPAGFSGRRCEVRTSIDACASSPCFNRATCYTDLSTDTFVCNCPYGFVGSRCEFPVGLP
With B2, the Kd was 18.7 nM in assay [6], 17.7 nM in assay [7], 57.8 nM in assay [8] and 2.49 nM in [9].
